Test results as given in PubChem BioAssay AID463173 (ICCB-Longwood Screening Facility, Harvard Medical School, 2010).
The whole screen tested about 52,000 compounds, of which about 1,700 (3.3%) were called active. Cut-off read from the data, not from the text of the source: active = survival mostly below about 52% (no sharp cut-off); inactive = mostly above about 56%. This is one part of the list.

Each compound was assayed on Wild type (assay: S. aureus survival, RN4220 and DeltatarO strains – OD600, teichoic acid synthesis inhibitors, primary screen (AID 463173)). Details: S. aureus RN4220 wild type/DeltatarO growth, OD600, 18 h, active compounds read low, screened at 18.75 µg/mL (by protocol).

| Structure (SMILES) | survival |
| --- | --- |
| CCc1ccc(-c2[nH]c3c(c2-c2sc(C)c(C(=O)OC)c2O)c(=O)n(C)c(=O)n3C)cc1 | inactive: 85% |
| COc1ccc(N(C)C(=O)CCS(=O)(=O)c2cccc3nsnc23)cc1 | inactive: 64% |
| COc1cccc2sc(N(Cc3cccnc3)C(=O)C3COc4ccccc4O3)nc12 (stereo not given) | inactive: 135% |
| O=C(Cn1ncc2c(=O)oc3ccccc3c21)NCc1ccc(Cl)cc1 | inactive: 90% |
| CC(=O)N1CCCc2cc(S(=O)(=O)N(C)CC(=O)Nc3ccc(Cl)cc3C)ccc21 | inactive: 126% |
| CCOc1ccc(-n2c(SCC(=O)NC3CCCC3)nnc2-c2ccoc2C)cc1 | inactive: 102% |
| Cc1ccc(Nc2nc3ccccc3c3nncn23)cc1C | active: 3% |
| Cc1c(NC(=O)c2ccccc2F)cccc1-c1nc2cccnc2s1 | inactive: 92% |
| COc1ccc(CNC(=O)C(C(C)C)N2Cc3ccccc3C2=O)cc1 (stereo not given) | active: -6% |
| CCCN(CCC)C(=O)C1CCN(c2ncnc3c2nc2n3CCCCC2)CC1 | inactive: 56% |
| COc1ccc2c(c1)CCc1c(C(=O)Nc3c(C)nn(Cc4ccc(C)cc4)c3C)noc1-2 | active: 16% |
| Cc1ccc(C)c(NC(=O)c2cc(S(=O)(=O)NCCC3=CCCCC3)ccc2F)c1 | inactive: 64% |
| O=c1c(S(=O)(=O)c2ccccc2)cn(Cc2ccc(F)cc2)c2cc(N3CCCCC3)c(F)cc12 | inactive: 74% |
| CCOc1ccc(CCNC(=O)CN(c2ccc(C)cc2)S(=O)(=O)N(C)C)cc1OCC | inactive: 81% |
| CC1Cn2cc(C(=O)Nc3cccc(C(F)(F)F)c3)c(=O)c3c(Cl)ccc(c32)O1 (stereo not given) | inactive: 89% |
| COC(=O)c1nnn(CC(=O)Nc2ccc(Br)c(C)c2)c1N | inactive: 80% |
| Cc1ccc(-c2onc(C)c2C)cc1S(=O)(=O)NC1CCCCC1 | inactive: 85% |
| CCN(CC)/C(N)=N/c1nc(C)cc(C)n1 | inactive: 112% |
| Cc1ccc(-n2c(=O)c3c(c4cc(C)ccc4n3C)n(CC(=O)Nc3cc(C)cc(C)c3)c2=O)cc1 | inactive: 119% |
| CCN1CCN(CCCNC(=O)c2ccc3c(c2)sc2nc(-c4ccc(OC)cc4)cn23)CC1 | inactive: 82% |
| NCCNC(=O)c1ccco1 | inactive: 114% |
| CCNc1c(NC(=O)c2cc(OCC)c(OCC)c(OCC)c2)c(=O)oc2ccccc12 | inactive: 92% |
| CCOC(=O)c1c(-c2ccc(OC)cc2)oc2ccc(OCc3ccc(C(=O)OC)cc3)cc12 | inactive: 53% |

| Structure (SMILES) | survival |
| --- | --- |
| CC(NC(=O)C(=O)Nc1c2c(nn1-c1ccc(F)cc1)CSC2)c1ccccc1 (stereo not given) | active: -4% |
| COc1cccc(CNC(=O)CCn2cccn2)c1 | inactive: 75% |
| CCc1cc(C=Nc2ccccc2)c(O)s1 | inactive: 113% |
| O=C(NCCCN1CCN(c2ccccc2F)CC1)c1nnc(Cc2ccc(Cl)cc2Cl)o1 | inactive: 77% |
| CCOC(=O)c1c(NC(=O)COc2ccc(F)cc2)sc2c1CCC(C)C2 (stereo not given) | inactive: 69% |
| CCC(=O)N1CCc2cc(Br)cc(S(=O)(=O)NCCc3ccccc3)c21 | inactive: 68% |
| CCOC(=O)c1[nH]cnc1C(=O)Nc1ccc(F)cc1 | inactive: 71% |
| CCCCN(C)CCNC(=O)c1nn(-c2ccc(OC)cc2)c(=O)c2c1c1ccccc1n2C | inactive: 74% |
| N#C/C(=C\c1ccc(-c2cc(Cl)ccc2Cl)o1)C(=O)Nc1ccccc1C(=O)O | inactive: 60% |
| CC(C)(C)C(=O)Nc1cccc(C(=O)OCc2cc(=O)n3nc(C4CCCCC4)sc3n2)c1 | inactive: 130% |
| O=C(CSc1nc2ccccc2n1Cc1ccccc1Cl)NCc1ccccc1 | inactive: 72% |
| COc1cccc(CNC(=O)CCNS(=O)(=O)c2ccc3c(c2)oc(=O)n3C)c1 | inactive: 78% |
| Cc1cc(C)c(Cn2c(C(O)c3ccccc3)nc3ccccc32)c(C)c1 (stereo not given) | active: 11% |
| CCn1cc2nc(SCc3ccccc3F)n(Cc3ccc(C)cc3)c(=O)c2n1 | inactive: 72% |
| Cc1ccc(NC(=O)CCS(=O)(=O)c2cccc3nsnc23)c(C)c1 | inactive: 74% |
| CCN(Cc1ccccc1)C(=O)CN1C(=O)COc2ccc(S(=O)(=O)N3CCCCCC3)cc21 | inactive: 98% |
| CC(CN=CC1=C(O)CC(C)(C)CC1=O)N=CC1=C(O)CC(C)(C)CC1=O (stereo not given) | inactive: 98% |
| CCOc1ccc(NC(=O)CCS(=O)(=O)c2ccc3c(c2)n(C)c(=O)c(=O)n3C)cc1 | inactive: 81% |
| Cc1ccc2cccc(NC(=O)C(C)(C)Oc3ccc(Br)cc3)c2n1 | inactive: 64% |
| CCCS(=O)(=O)Nc1cc2c(cc1NCc1ccccc1)n(C)c(=O)n2C | inactive: 82% |
| CCOc1ccc(NC(=O)CSc2nc(-c3ccc(F)cc3)cc(C(F)(F)F)c2C#N)cc1 | inactive: 127% |
| COc1ccc(C(=O)NCC23C=CC(O2)C2C(=O)N(c4ccccc4C)C(=O)C23)cc1 (stereo not given) | inactive: 103% |
| CCOC(=O)c1ccccc1NC(=O)Cn1c2ncccc2c(=O)n1-c1ccccc1 | inactive: 120% |

| Structure (SMILES) | survival |
| --- | --- |
| Cc1ccc(C)c(N2CCN(Cc3nnc(-c4ccccc4)o3)CC2)c1 | inactive: 87% |
| COc1cccc(C(=O)c2cn(CC(=O)Nc3cccc(C)c3C)c3nc(C)ccc3c2=O)c1 | inactive: 80% |
| COc1cc(-c2nnc(SCCOc3ccc(C)c(Cl)c3)o2)cc(OC)c1OC | inactive: 125% |
| CCOC(=O)CSc1nc2ccc(NC(=O)c3ccccc3)cc2s1 | inactive: 87% |
| CCOCCCn1c(SCC(=O)Nc2ccc(OC)cc2OC)nc2ccccc2c1=O | inactive: 80% |
| O=C(NC(CO)C(=O)O)c1ccncc1 (stereo not given) | inactive: 90% |
| Cc1ccc(CN2CCc3nc(SCC(=O)Nc4cccc(C)c4C)[nH]c(=O)c3C2)cc1 | inactive: 91% |
| COc1ccc(-c2cn3c(n2)sc2cc(C(=O)Nc4cc(Cl)ccc4C)ccc23)cc1 | inactive: 83% |
| CCc1ccc(C(=O)Nc2ccc3nn(-c4ccc(C)c(Cl)c4)nc3c2)cc1 | inactive: 87% |
| Cc1cccc(C)c1NC(=O)Cn1nc(C)c2sc3ccccc3c2c1=O | inactive: 97% |
| COc1cc(OC)cc(-c2nc3nc(C)c(CCC(=O)Nc4cc(F)ccc4F)c(C)n3n2)c1 | inactive: 109% |
| CCOC(=O)c1ccc(NC(=O)Cn2cc(C(=O)c3ccc(Cl)cc3)c(=O)c3ccc(C)nc32)cc1 | inactive: 68% |
| O=C(CCNS(=O)(=O)c1ccc2c(c1)CCN2C(=O)C1CC1)Nc1ccc(F)cc1F | inactive: 59% |
| COc1ccc(N2CC(NC(=O)c3ccc(S(=O)(=O)N4CCCCC4)cc3)CC2=O)cc1OC (stereo not given) | inactive: 126% |
| Cc1cccc(NC(=O)c2cc(S(=O)(=O)N3CCC4(CC3)OCCO4)ccc2F)c1 | inactive: 87% |
| O=C(C1=C(N2CCCCC2)c2ccccc2S(=O)(=O)N1)c1ccccc1 | inactive: 100% |
| CCSc1ncc(Cl)c(C(=O)Nc2c(C(=O)c3ccccc3)oc3ccccc23)n1 | inactive: 90% |
| Cc1ccccc1CN1CCN(CC(=O)NCc2ccccc2Cl)C1=O | inactive: 77% |
| O=C(NCCc1csc(-c2ccc(F)cc2)n1)c1ccc(Br)o1 | inactive: 73% |
| Cc1nc2cc(-c3ccccc3)nn2c(C)c1CCC(=O)N1CCN(c2ccccc2)CC1 | inactive: 69% |
| COc1ccc2oc(-c3ccc(C)c(NC(=O)Cc4ccc(Cl)cc4)c3)nc2c1 | inactive: 140% |
| Cc1cccc(-c2nc(Cn3c(SCc4cccc(C(F)(F)F)c4)nc4ccncc43)c(C)o2)c1 | inactive: 81% |
| Cn1cnc2c(=O)oc3ccc(S(=O)(=O)N4CCN(c5cccc(Cl)c5)CC4)cc3c21 | active: -6% |

| Structure (SMILES) | survival |
| --- | --- |
| Cc1c(NC(=O)c2cc(=O)c3cc(Cl)ccc3o2)c(=O)n(-c2ccccc2)n1C | inactive: 82% |
| Fc1ccc2c(c1)NC(c1ccncc1)=NC(c1cccs1)=N2 | inactive: 47% |
| Cc1nc2c(C(=O)NC(C)c3ccccc3)cnn2c(C)c1Cc1ccccc1 (stereo not given) | inactive: 68% |
| COC(=O)c1cc2occc2n1Cc1nc(-c2ccc(C)cc2)oc1C | inactive: 48% |
| CCN(CC)C(=O)c1ccccc1C | inactive: 102% |
| CCC(=O)Nc1nnc(S(=O)(=O)N2CCc3ccccc32)s1 | inactive: 81% |
| Cn1cnnc1SCC(=O)O | inactive: 111% |
| CC(C)c1ccc(N2C(=O)CSC23C(=O)N(Cc2ccccc2)c2ccccc23)cc1 (stereo not given) | inactive: 68% |
| Cc1ccc(NC(=O)Cn2c(=O)n(Cc3nc(C)no3)c(=O)c3cc4c(cc32)OCO4)cc1 | inactive: 90% |
| COc1ccc(NC(=O)N2CCN(S(=O)(=O)c3ccc4c(ccn4C)c3)CC2)c(OC)c1 | inactive: 87% |
| COC1CCC(C(=O)Nc2nc(-c3ccc4c(c3)CCN4S(C)(=O)=O)cs2)CC1 (stereo not given) | inactive: 103% |
| O=C(/C=C/c1ccccc1Cl)Nc1nc(-c2cccs2)ns1 | inactive: 73% |
| CC(Oc1ccccc1)C(=O)Nc1c[nH]c(=O)[nH]c1=O (stereo not given) | inactive: 105% |
| O=C(Cn1cc(SCc2c(F)cccc2Cl)c2ccccc21)N1CCCC1 | inactive: 92% |
| CCc1nnc(NC(=O)c2c(O)c3ccccc3n(C)c2=O)s1 | inactive: 91% |
| Cc1nc2ccn(Cc3ccco3)c(=O)c2cc1C(=O)N1CCN(c2ccc(F)cc2)CC1 | inactive: 131% |
| COc1cccc(CNC(=O)C(C)n2c(=O)cc(-c3ccccc3)c3c(C)nn(C)c32)c1 (stereo not given) | inactive: 82% |
| CN(Cc1ccccc1)C(=O)CSc1nc(-c2ccc(F)cc2)cc(C(F)(F)F)n1 | active: -4% |
| Cc1ccc(/C=C(\C#N)c2nc3ccccc3c(=O)[nH]2)cc1 | inactive: 86% |
| O=C(Nc1nnc(S(=O)(=O)N2CCc3ccccc32)s1)c1cccc(Cl)c1 | active: 12% |
| CCCC(CCC)C(=O)NC1CC(=O)N(c2ccc3c(c2)OCCO3)C1 (stereo not given) | inactive: 119% |
